Sequences and labels used below:
B1: CPEB3 Ribozyme (parent)
chain: UAACAGGGGGCCACAGCAGAAGCGUUCACGUCGCAGCCCCUGUCAGAUUCUGGUGAAUCUGCGAAUUCUGCUGUAUAUCUC

Read counts are not given, so values of variants with three or more changes are uncertain.

This series covers variants of B1. Description: self-cleavage, relative activity (ratio to wild type); higher = more cleavage; in vitro, sequencing. In a few lines:
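For each CPEB3 ribozyme variant, relative activity is its cleaved/total read fraction divided by the unmutated ribozyme's. Barcoded error-prone PCR libraries were transcribed by T7 RNA polymerase (5 hours, 37°C) and held in DNase I for 15 min before an EDTA stop, with cleavage occurring throughout. Template-switching reverse transcription and Illumina sequencing were used to read the RNAs. A 5-read minimum applied, and results are the mean of three batches.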
As for UAACAGGGGGCCACAGCAGAAGCGUUCACGUCGCAGCCCCUGCCAGGUUCUGGUGAAUCUGCGAAUUCUGCUGUAUUUCUC, the self-cleavage was found to be 0.64.
The same measure for UAACAGGGGGCCACAGCAGAAGCGUUCACGUCGCAGCCCCUGCCAUAUUCUGGUGAAUCUGCGAAUCCUGCCGUAUAUCUC: 0.04; for UAACAGGGGGCCACAGCAGAAGCGUUCACGUCGCAGCCCCUGACGGACUCUGGUGGAUCUGCGAAUUCUGCUGUAUAUCUC: 0.23; for UAACAGGGGGCCACAGCAGAAGCGUUCACGUCGCAGCCCCUGCCAGAUUCUAGUGAAUCUGCGGAUUCUGCUGUAUGACUC: 0.81.
In the case of UAACAGGGGGCCACAGCAGAAGCGUUCACGUCGCAGCCCCUCUCGGGUUCUGGUGAAUCUGCGAAUUCUGCUGUAUAUCUC, the self-cleavage was determined as 0.12.
Then UAACAGGGGGCCACAGCAGAAGCGUUCACGUCGCAGCCCCUGACAGAUACUAGUGAAUCUGCGAAUUCUGCUGCAUAUCUC, with 1.25.
Then UAACAGGGGGCCACAGCAGAAGCGUUCACGUCGCAGCCCCUGCCAGAUUAUGGUGAAUCUGCGAUUUCGGCUGUAUACCUC, with 0.08; and UAACAGGGGGCCACAGCAGAAGCGUUCACGUCGCAGCCCCUAUCAGAUUCUGGUGAAUCUGCGUAUUCGGCUGUAUAUCUC, with 0.15; and UAACAGGGGGCCACAGCAGAAGCGUUCACGUCGCAGCCCCUGACAGAUUCUGGUGAGUCUGCGAAUUCUGCUGUAUACCUC, with 0.62.
Then UAACAGGGGGCCACAGCAGAAGCGUUCACGUCGCAGCCCCUGACAGAUUCUGGUGAAUCUGCGAAUUUCGCCGUAUAUCUC, with 0.39; and UAACAGGGGGCCACAGCAGAAGCGUUCACGUCGCAGCCCCUGCCAGAUUCUGGUGAAUCUGCGGAUUCUGCUGUAUAUCCC, with 0.51; and UAACAGGGGGCCACAGCAGAAGCGUUCACGUCGCAGCCCCUGCCGGAUUCUGGUGAAUCUGCGAACUCAGCUGUAUAUCUC, with 0.09.
Turning to UAACAGGGGGCCACAGCAGAAGCGUUCACGUCGCAGCCCCUGCCAGAUUCUGGUGAAUCUGAGAAUUCUGCUAUACAUCUC, the self-cleavage is 0.2.
Then UAACAGGGGGCCACAGCAGAAGCGUUCACGUCGCAGCCCCUGACUGAUUAUGGUGAAUCUGCGAAUUCUGCUGUGUGUCUC, with 0.4; and UAACAGGGGGCCACAGCAGAAGCGUUCACGUCGCAGCCCCUGACAGAUUCUGGUGUAUCUGCGGAUUCUGCUGUAGAUCUC, with 0.39.
Regarding UAACAGGGGGCCACAGCAGAAGCGUUCACGUCGCAGCCCCUGACAGAUUCUGGUGUAUCUGCGAAUUCUACUGUAUAUCUC, the self-cleavage amounted to 0.48.
Take UAACAGGGGGCCACAGCAGAAGCGUUCACGUCGCAGCCCCUGCCGGAUUCUGGUGAAUCUGCGAAUUCUGCCGCAUAUCUC: the self-cleavage turned out to be 0.84.
For UAACAGGGGGCCACAGCAGAAGCGUUCACGUCGCAGCCCCUUUCAGAUCCUGGUGAAUUUGCGAAUUCUGCUGUAUACCUC, the self-cleavage stood at 0.06.
Then UAACAGGGGGCCACAGCAGAAGCGUUCACGUCGCAGCCCCUGCCAGAUUCUGGUGAGUCUGCGAAUUCUGCUGUAUACCUC, with 0.17; and UAACAGGGGGCCACAGCAGAAGCGUUCACGUCGCAGCCCCUGCCGGAUGCUGGUGAAUCUGCGAAUUCUGCUGUACAUCUC, with 0.21; and UAACAGGGGGCCACAGCAGAAGCGUUCACGUCGCAGCCCCUGCCGGAUUCUGGUGAAUCUGCUAAUUCUGCCGUAUAUCUC, with 0.46.
Consider UAACAGGGGGCCACAGCAGAAGCGUUCACGUCGCAGCCCCUGCCAGUUUCUGGUGAAUCUGCGGAUUCUGCUGUACAUCUC, for which the self-cleavage came to 0.16.
For UAACAGGGGGCCACAGCAGAAGCGUUCACGUCGCAGCCCCUGAUAGAUUCUGGUGAAUCUGCGGAUUCCGCAGUAUAUCUC, the self-cleavage was 0.03.
Then UAACAGGGGGCCACAGCAGAAGCGUUCACGUCGCAGCCCCUAUCAGAUUCUGGUGAAACUGCGAGUUCUGCUGUAUAUCUC, with 0.06; and UAACAGGGGGCCACAGCAGAAGCGUUCACGUCGCAGCCCCUGACAGAUUCUGGCGAAUCUGCGAACUCUACAGUAUAUCCC, with 0.18.
Then UAACAGGGGGCCACAGCAGAAGCGUUCACGUCGCAGCCCCUGCCUGAUUCUGGUGUAUCUGCGAAUUCUGCUGUAUAUCUC, with 0.26; and UAACAGGGGGCCACAGCAGAAGCGUUCACGUCGCAGCCCCUGACAGACUCUGGAGAAUCUGCGAAUUCUGCUGUAUAUCUC, with 0.75.
Then UAACAGGGGGCCACAGCAGAAGCGUUCACGUCGCAGCCCCUUUCAGAUUCUGGUGGAUCUGCGAAUUCUGCUGCAUAUCUC, with 0.32; and UAACAGGGGGCCACAGCAGAAGCGUUCACGUCGCAGCCCCUUUCAGAUCCUGGUGAAUCUGAGAAUUCCGCUGUAUAUCUC, with 0.09; and UAACAGGGGGCCACAGCAGAAGCGUUCACGUCGCAGCCCCUGACAGAUUUUGGUGAAUCCGCGAAUUCUGCUGUAUACCUC, with 0.3.
As to UAACAGGGGGCCACAGCAGAAGCGUUCACGUCGCAGCCCCUGACAGAUUCUGGCGAAUCUGCGAAUUCAGCUAUAUAUCUC, the self-cleavage was determined as 0.39.
The same measure for UAACAGGGGGCCACAGCAGAAGCGUUCACGUCGCAGCCCCUGACAGAUUCCGGUGAAUCUGCGAAUUCUGCUGUAUACCUC: 1.12; for UAACAGGGGGCCACAGCAGAAGCGUUCACGUCGCAGCCCCUGCCAUAUUCUGGUGAAUCUGCGGAUUCUGCUGUAUAUCUC: 0.21.
UAACAGGGGGCCACAGCAGAAGCGUUCACGUCGCAGCCCCUGACAGAUCCUGGUGAAUCUGCGAAUUCUGCUGUAUUUCUC: the self-cleavage amounted to 0.59.
The same measure for UAACAGGGGGCCACAGCAGAAGCGUUCACGUCGCAGCCCCUGACAGAUUCUGGUGUAUCUGCGAAUUCAGCUGUAUAUCUC: 0.3; for UAACAGGGGGCCACAGCAGAAGCGUUCACGUCGCAGCCCCUGACAGAUUCUGGUGAAUCUGCGAAUUCUGCUGUAUACGUC: 1.27.
The same measure for UAACAGGGGGCCACAGCAGAAGCGUUCACGUCGCAGCCCCUGCCAGAUUCUGGUGGAUCUGCGAAUUCUGCUGUAUGUCUC: 0.27.
The same measure for UAACAGGGGGCCACAGCAGAAGCGUUCACGUCGCAGCCCCUGACGGUUUCUGGUGAAUCUGCGAAUUCUGCUGUAUAUCUC: 0.31.
Turning to UAACAGGGGGCCACAGCAGAAGCGUUCACGUCGCAGCCCCUUUCAGAUUCUGGUGAACCCGCGAAUUCUGCUGUAUAUCUC, the self-cleavage stood at 0.17.
With UAACAGGGGGCCACAGCAGAAGCGUUCACGUCGCAGCCCCUGCCAGAUUCUGGUGAAUCUGCGAGUUCUGCUGUUUAUCUG, the self-cleavage came to 0.17.
The same measure for UAACAGGGGGCCACAGCAGAAGCGUUCACGUCGCAGCCCCUGACAGAUUCUGGUGUAUCUGCGAAUUCUGCUGUAUACCUC: 0.62.
Then UAACAGGGGGCCACAGCAGAAGCGUUCACGUCGCAGCCCCUAUCAGAUUCUGGUGAAUCUGCGGAUACUGCGGUAUAUCUC, with 0.1; and UAACAGGGGGCCACAGCAGAAGCGUUCACGUCGCAGCCCCUGCCUGAUUCUGGUGAAUAUGCGAAUUCUGCUGUAUAUCUC, with 0.16.
Then UAACAGGGGGCCACAGCAGAAGCGUUCACGUCGCAGCCCCUGACAGAUGCUGGUGUGUCUACGAAUUCUGCUGUAUAUCUC, with 0.38; and UAACAGGGGGCCACAGCAGAAGCGUUCACGUCGCAGCCCCUGACAGAUUCUGGUGGUUCUGCGAAUUCUGCUGUAUAUCUC, with 0.46; and UAACAGGGGGCCACAGCAGAAGCGUUCACGUCGCAGCCCCUGCCGGAUUCUGGUGAAUCUGCGAAUUCUGCUGUAACUCUC, with 0.28.
With UAACAGGGGGCCACAGCAGAAGCGUUCACGUCGCAGCCCCUGCCAGGUUCUGGUGAAUCUGCGAAUUCUGCUGCAUAUCUC, the self-cleavage amounted to 0.8.
Take UAACAGGGGGCCACAGCAGAAGCGUUCACGUCGCAGCCCCUGACAGAUCCCGGUGAAUCUGCGAAUUCUGCUGUAUAUCUC: the self-cleavage came out at 0.35.
With UAACAGGGGGCCACAGCAGAAGCGUUCACGUCGCAGCCCCUGCCAGAUUCUGGUGGGUCAGCGAAUUCUGCUGUAUAUCUC, the self-cleavage is 0.12.
The same measure for UAACAGGGGGCCACAGCAGAAGCGUUCACGUCGCAGCCCCUGACAGAUUCUGGUGAAUCUGCGAAUUCUGCUGAACAUCUC: 1.04; for UAACAGGGGGCCACAGCAGAAGCGUUCACGUCGCAGCCCCUGACAGAUUCUGGUGAAUCCGCGAAUUCUGCUGUAUGUCAC: 0.72; for UAACAGGGGGCCACAGCAGAAGCGUUCACGUCGCAGCCCCUGACAGAUUCUGGCGAAUCUGUGAAUUCUGCUGUAUAUCUC: 0.18.
Then UAACAGGGGGCCACAGCAGAAGCGUUCACGUCGCAGCCCCUCUCAGAUUCUGGUGAAUCUGCGCGUUCUGCUGUAUAUCUC, with 0.17; and UAACAGGGGGCCACAGCAGAAGCGUUCACGUCGCAGCCCCUGACAGACUCUGGUGUAUCUGCGAAUUCCGCUGUACAUCUC, with 0.08.
Then UAACAGGGGGCCACAGCAGAAGCGUUCACGUCGCAGCCCCUGACGGAUUCUGGUGAGUCUGCGAAUUCUGCUGUAUAUCUC, with 0.79; and UAACAGGGGGCCACAGCAGAAGCGUUCACGUCGCAGCCCCUGACAGAUUCUGGAGAGUCUGCAAAUUCUGCCGUAUAUCUC, with 1.22.
In the case of UAACAGGGGGCCACAGCAGAAGCGUUCACGUCGCAGCCCCUUUCAGAUUCUGGUGUAUCAGCGAAUUCCGCUGUAUAUCUC, the self-cleavage was found to be 0.09.
Then UAACAGGGGGCCACAGCAGAAGCGUUCACGUCGCAGCCCCUAUCAGACUCUGGUGAGUCUGCGAAUUCUGCUGUAUAUCUU, with 0.29; and UAACAGGGGGCCACAGCAGAAGCGUUCACGUCGCAGCCCCUGCCAGAUUCUGGUGUAACUGCGAAUUCUGCUGUAUAUCUC, with 0.11.
The same measure for UAACAGGGGGCCACAGCAGAAGCGUUCACGUCGCAGCCCCUGACAGAUUCUGGUGGGUCUGCGAACCCUGCUGUAAAUCUC: 0.21; for UAACAGGGGGCCACAGCAGAAGCGUUCACGUCGCAGCCCCUAUCAGAUUCUGGUGAAUCAGCGAAUUCUGCCGUAUAUCUC: 0.22; for UAACAGGGGGCCACAGCAGAAGCGUUCACGUCGCAGCCCCUGACAGAUUCUGGUGAAUCUGCGAAUUCUGCUGUAUAACUU: 1.15.
The same measure for UAACAGGGGGCCACAGCAGAAGCGUUCACGUCGCAGCCCCUGACAGAUCCUGGUGAAUCUGCGCAUUCUGCUGUAUAUCUC: 0.15; for UAACAGGGGGCCACAGCAGAAGCGUUCACGUCGCAGCCCCUGACGGAUCCUGGUGAGUCUGCGAAUUCUGCAGUAUACCUC: 0.3.
Regarding UAACAGGGGGCCACAGCAGAAGCGUUCACGUCGCAGCCCCUGACAGAAUCUGGUGAAUCUGCGAAUUCUGCUGAAUAUCUC, the self-cleavage stood at 0.88.
Then UAACAGGGGGCCACAGCAGAAGCGUUCACGUCGCAGCCCCUGACAGAUUCAGGUGAAUCUGCGUAUUCAGCUGUAUAUCUC, with 0.54; and UAACAGGGGGCCACAGCAGAAGCGUUCACGUCGCAGCCCCUGACAUAUUCUGGUGAAUCUGCGGAUUCUGCUGUAUAUCUC, with 0.16; and UAACAGGGGGCCACAGCAGAAGCGUUCACGUCGCAGCCCCUGCCAGAUUUCGGUGAAUCUGCGAAUUCUGCUGUAUAUCUC, with 0.66.

Values taken from the RNAGym collection of RNA variant scans (doi:10.1093/nar/gkz1192).
